# Out of some 310,000 compounds screened, about 14,000 (4.5%) showed an effect of 50% or more. The effect is printed as a negative number. Some of the results follow.
# Molecular target: human ether-à-go-go-related gene (hERG) potassium channel (human, UniProt Q12809)
# Assay: primary screen, population patch clamp on CHO cells stably expressing hERG
# 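Further: peak tail current of the secondary pulse compared with the same well before compound.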
# Chain of human ether-à-go-go-related gene (hERG) potassium channel (Q12809 whole entry, looked up): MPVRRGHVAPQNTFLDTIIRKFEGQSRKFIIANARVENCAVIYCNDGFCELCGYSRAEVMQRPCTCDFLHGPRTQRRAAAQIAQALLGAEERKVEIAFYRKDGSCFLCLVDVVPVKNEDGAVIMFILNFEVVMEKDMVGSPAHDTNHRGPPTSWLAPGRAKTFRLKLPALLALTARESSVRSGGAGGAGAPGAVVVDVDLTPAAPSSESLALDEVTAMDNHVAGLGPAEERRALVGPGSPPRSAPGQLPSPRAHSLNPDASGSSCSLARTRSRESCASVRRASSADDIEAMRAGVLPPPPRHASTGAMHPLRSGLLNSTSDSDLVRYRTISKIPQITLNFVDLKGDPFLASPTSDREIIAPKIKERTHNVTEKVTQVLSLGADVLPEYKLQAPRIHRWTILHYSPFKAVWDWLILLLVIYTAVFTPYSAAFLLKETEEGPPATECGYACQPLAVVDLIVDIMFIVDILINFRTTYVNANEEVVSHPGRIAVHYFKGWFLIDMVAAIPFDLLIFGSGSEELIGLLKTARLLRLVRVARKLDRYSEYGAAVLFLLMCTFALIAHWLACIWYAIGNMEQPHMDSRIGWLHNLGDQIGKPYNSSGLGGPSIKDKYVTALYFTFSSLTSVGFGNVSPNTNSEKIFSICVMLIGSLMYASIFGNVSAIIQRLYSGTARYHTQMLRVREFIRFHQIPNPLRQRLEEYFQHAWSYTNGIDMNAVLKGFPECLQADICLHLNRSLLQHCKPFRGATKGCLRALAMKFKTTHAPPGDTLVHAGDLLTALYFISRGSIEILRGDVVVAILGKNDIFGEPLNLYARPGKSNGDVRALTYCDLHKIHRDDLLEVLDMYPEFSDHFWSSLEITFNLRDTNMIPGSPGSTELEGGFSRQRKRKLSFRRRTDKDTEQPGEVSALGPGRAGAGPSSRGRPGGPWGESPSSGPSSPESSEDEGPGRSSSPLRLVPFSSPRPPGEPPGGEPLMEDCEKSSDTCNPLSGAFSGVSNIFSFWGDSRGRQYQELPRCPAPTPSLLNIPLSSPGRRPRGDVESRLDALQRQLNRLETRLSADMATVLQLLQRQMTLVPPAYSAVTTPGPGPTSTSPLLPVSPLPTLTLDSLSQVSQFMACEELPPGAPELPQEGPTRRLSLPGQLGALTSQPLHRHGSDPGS
row,Structure (SMILES),"hERG current change (%, negative = inhibition) at 10uM"
1,O=C(Nc1ccccc1N1CCCCC1)c1cccs1,-42.4%
2,CC(=O)N1c2ccc(S(=O)(=O)NCC3CCC(C(=O)N(C)Cc4ccccc4)CC3)cc2CC1C (centres unmarked),12.9%
3,COc1ccc(-c2nc(SCC(=O)Nc3c(F)cccc3F)n[nH]2)cc1,-36.1%
4,Cc1nn(CCC(=O)NNC(=S)Nc2ccc(Cl)cc2)c(C)c1[N+](=O)[O-],9.72%
5,Cc1cccc(CCNC(=O)CCS(=O)(=O)c2ccc3nc(C)sc3c2)c1,7.85%
6,CCn1c(=N)n(CC(O)c2ccco2)c2ccccc21.Cl (centres unmarked),-30.7%
7,CC(C)c1c(C(=O)N/N=C/c2ccc(C(F)(F)F)cc2)nnn1-c1nonc1N,11.7%
8,CCOC(=O)C1=C(CS(=O)(=O)c2ccc(Cl)cc2)NC(=O)NC1c1ccc(O)c(OC)c1 (centres unmarked),0.805%
9,CC1CCCN(CCCNC(=O)C2CCN(S(=O)(=O)N3CCC4(CC3)OCCO4)CC2)C1 (centres unmarked),14.6%
10,Cc1ccc(C(=O)Cc2nnc(C)s2)cc1,-18.2%
11,COc1ccc(CNC(=O)CSc2nnc(C)n2-c2ccc(F)cc2)cc1,-22.3%
12,Cc1ccc(NC(=O)CCC(=O)NNC(=O)COc2ccc([N+](=O)[O-])cc2)cc1C,27.1%
13,CCN1C(=O)C2(C(C#N)=C(N)Oc3n[nH]c(-c4ccc(Cl)cc4)c32)c2ccccc21 (centres unmarked),17.8%
14,CCOC(=O)c1nc(N)c(C(=O)OCC)[nH]1,14.4%
15,COC(=O)CN1C(=O)COc2ccc(S(=O)(=O)NCc3ccc(F)cc3)cc21,-23.3%
16,O=C(Nc1cccc(-c2ccc3nncn3n2)c1)C(F)(F)F,2.1%
17,O=C(NC(Cc1ccccc1)C(=O)O)/C(=C/c1ccccc1)NC(=O)c1ccc(Br)o1 (centres unmarked),20.1%
18,CCC(=O)Nc1ccc2nn(-c3ccc(F)cc3)nc2c1,11.2%
19,COc1ccc(-c2nnc(SCC(=O)Nc3ccccc3)n2C)cc1,0.214%
20,COc1cccc(CNS(=O)(=O)c2cn(C)cn2)c1,9.73%
21,COc1cc(C(=O)NNC(=O)COc2cccc(F)c2)ccc1OCC(=O)N1CCOCC1,-2.81%
22,COC(=O)C(Cc1c[nH]c2ccccc12)NC(=O)c1cc(-c2ccc(OC)c(OC)c2)oc1C (centres unmarked),-3.18%

row,Structure (SMILES),"hERG current change (%, negative = inhibition) at 10uM"
1,CCCCN=C1CC(C)(C)CC(=O)/C1=C(/O)CCC,-7.23%
2,O=C(CN1C(=O)C2CC=CCC2C1=O)OCc1cc(=O)n2cc(Br)ccc2n1 (centres unmarked),-19.1%
3,CCOC(=O)c1c(C)c(C(=O)Nc2ccc3c(c2)OCCO3)c(C)n1CC,7.48%
4,Cc1ccc(S(=O)(=O)N2CCC(C(=O)OCC(=O)N(Cc3ccccc3)C(C)(C)C)CC2)cc1C,-1.29%
5,CCn1cc(C(=O)NN)c(=O)c2cc(F)c(N3CCN(C)CC3)cc21,15.8%
6,CCn1c(SCC(=O)Nc2ccc(OC)cc2)nc2c1c(=O)n(C)c(=O)n2C,-14.2%
7,CCOc1ccc(CC(=O)Nc2nccs2)cc1OCC,-3.6%
8,O=C(NCc1ccccc1)C(c1ccc(F)cc1)N(C(=O)c1csnn1)C1CC1 (centres unmarked),6.8%
9,O=C1CCc2ccccc2N1,16.5%
10,O=C1CCN(CCc2ccccc2)CCN1[C@H](COc1ccccc1)c1ccccc1,-75.9%
11,COCCn1c(SCC(=O)NC(=O)NC2CCCC2)nc2ccccc2c1=O,-20.9%
12,CCOc1cc(NC(=O)c2ccccc2[N+](=O)[O-])c(OCC)cc1NC(=O)CC(C)C,13.6%
13,CCCCc1nnc(SC(C)C(=O)Nc2nccs2)n1C (centres unmarked),11%
14,Cc1ccc(C)c(NC(=O)CN(C)C(=O)c2ccccc2Cc2ccccc2)c1,-25.1%
15,O=C(NCc1n[nH]c(=S)n1Cc1ccccc1)c1ccccc1,5.09%
16,COCCN(Cc1ccc(F)cc1)C(=O)c1cc2ccccc2oc1=O,-0.373%
17,Cc1cc(NCCN2CCOCC2)c2ccc3ccccc3c2n1,-69.5%
18,Cc1[nH]c(=O)[nH]c(=O)c1S(=O)(=O)N1CCCC(C(=O)NCc2ccccc2Cl)C1 (centres unmarked),-2.87%
19,O=C(NCCc1nnc2ccc(NCCCN3CCOCC3)nn12)c1ccccc1F,1.39%
20,COc1ccc2[nH]c3nc(SCC(=O)Nc4ccc5c(c4)OCO5)nnc3c2c1,16.5%
21,CCCCN(CCCC)C(=O)c1nsnc1-c1ccccc1O,-14.8%
22,CCO/N=C(/C)c1c(O)cc(C(C)(C)C)n(-c2ccccc2)c1=O,-11.4%
